Some of these results come from one statement about several compounds together.
Biological target: histamine H3 receptor (Homo sapiens, UniProt Q9Y5N1)
Assay: Histamine H3 functional antagonist assay
Settings: membranes of CHO K1 cells expressing human H3, [35S]GTPgammaS SPA, histamine 0.3 μM

Sequence of histamine H3 receptor (Q9Y5N1 whole entry): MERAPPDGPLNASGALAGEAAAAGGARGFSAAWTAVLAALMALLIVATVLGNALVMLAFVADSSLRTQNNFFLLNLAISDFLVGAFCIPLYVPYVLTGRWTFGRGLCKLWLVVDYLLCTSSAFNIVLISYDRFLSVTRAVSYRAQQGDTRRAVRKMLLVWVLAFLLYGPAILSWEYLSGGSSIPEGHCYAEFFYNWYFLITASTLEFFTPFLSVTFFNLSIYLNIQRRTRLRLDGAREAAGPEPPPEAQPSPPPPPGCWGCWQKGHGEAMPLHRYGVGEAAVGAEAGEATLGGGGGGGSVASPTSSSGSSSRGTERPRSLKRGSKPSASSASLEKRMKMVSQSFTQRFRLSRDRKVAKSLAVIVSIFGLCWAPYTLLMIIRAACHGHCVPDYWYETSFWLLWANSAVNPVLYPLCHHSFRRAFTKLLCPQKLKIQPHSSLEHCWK

SMILES	antagonism in the histamine H3 functional antagonist assay (pKb)	other results
O=C(c1ccc2c(c1)CCCO2)N1CCN(c2ccc(OCCCN3CCCCC3)cc2)CC1 [Example E421, 1-(3,4-Dihydro-2H-chromen-6-ylcarbonyl)-4-(4-{[3-(1-piperidinyl)propyl]oxy}phenyl)piperazine]	> 8.4	antagonism in the histamine H3 functional antagonist assay (pKb) (listed as Example 421): > 6.5 pKb
O=C(C1CCS(=O)(=O)CC1)N1CCN(c2ccc(OCCCN3CCCCC3)cc2)CC1 [Example E410, 1-[(1,1-Dioxidotetrahydro-2H-thiopyran-4-yl)carbonyl]-4-(4-{[3-(1-piperidinyl)propyl]oxy}phenyl)piperazine]	> 8.4	antagonism in the histamine H3 functional antagonist assay (pKb) (listed as Example 410): > 6.5 pKb
O=C(c1ccc(C(=O)N2CCN(c3ccc(OCCCN4CCCCC4)cc3)CC2)cc1)N1CCC1 [Example E442, 1-{[4-(1-Azetidinylcarbonyl)phenyl]carbonyl}-4-(4-{[3-(1-piperidinyl)propyl]oxy}phenyl)piperazine]	> 8.4	antagonism in the histamine H3 functional antagonist assay (pKb) (listed as Example 442): > 6.5 pKb
O=C(C1CCOCC1)N1CCN(c2ccc(OCCCN3CCCCC3)cc2)CC1 [Example E346, 1-(4-{[3-(1-Piperidinyl)propyl]oxy}phenyl)-4-(tetrahydro-2H-pyran-4-ylcarbonyl)piperazine]	> 6.5	
N#Cc1ccc(C(=O)N2CCN(c3ccc(OC[C@H]4CCCN(C5CCCC5)C4)cc3)CC2)cc1 [Example E303, 4-({4-[4-({[(3S)-1-Cyclopentyl-3-piperidinyl]methyl}oxy)phenyl]-1-piperazinyl}carbonyl)benzonitrile]	> 6.5	
O=C(c1ccccc1)N1CCN(c2ccc(OCCCN3CCCCC3)cc2F)CC1 [Example E310, 1-(2-Fluoro-4-{[3-(1-piperidinyl)propyl]oxy}phenyl)-4-(phenylcarbonyl)piperazine]	> 6.5	
O=C(c1ccc2nccnc2c1)N1CCN(c2ccc(OCCCN3CCCCC3)cc2)CC1 [Example E384, 6-{[4-(4-{[3-(1-Piperidinyl)propyl]oxy}phenyl)-1-piperazinyl]carbonyl}quinoxaline]	> 8.4	antagonism in the histamine H3 functional antagonist assay (pKb) (listed as Example 384): > 6.5 pKb
O=C(c1ccc2c(c1)OCO2)N1CCN(c2ccc(OCCCN3CCCCC3)cc2)CC1 [Example E335, 1-(1,3-Benzodioxol-5-ylcarbonyl)-4-(4-{[3-(1-piperidinyl)propyl]oxy}phenyl)piperazine]	> 6.5	
O=C(NC1CCOCC1)N1CCN(c2ccc(OCCCN3CCCCC3)cc2)CC1 [Example E275, 4-(4-{[3-(1-Piperidinyl)propyl]oxy}phenyl)-N-(tetrahydro-2H-pyran-4-yl)-1-piperazinecarboxamide]	> 6.5	
O=C(C1CC[S+]([O-])CC1)N1CCN(c2ccc(OCCCN3CCCCC3)cc2)CC1 (stereo not shown) [Example E431, 1-[(1-Oxidotetrahydro-2H-thiopyran-4-yl)carbonyl]-4-(4-{[3-(1-piperidinyl)propyl]oxy}phenyl)piperazine]	> 8.4	antagonism in the histamine H3 functional antagonist assay (pKb) (listed as Example 431): > 6.5 pKb
CC(C)N1CCC(Oc2ccc(N3CCN(C(=O)c4ccc(F)cc4)CC3)cc2)CC1 [Example E255, 1-[(4-Fluorophenyl)carbonyl]-4-(4-{[1-(1-methylethyl)-4-piperidinyl]oxy}phenyl)piperazine]	> 6.5	
O=C(c1ccc2ccccc2c1)N1CCCN(Cc2ccc(OCCCN3CCCCC3)cc2)CC1 [Example E14, 1-Naphthalen-2-yl-1-{4-[4-(3-piperidin-1-yl-propoxy)-benzyl]-[1,4]diazepan-1-yl}-methanone]	> 8.4	antagonism in the histamine H3 functional antagonist assay (pKb) (listed as Example E14): > 6.5 pKb
N#Cc1ccc(C(=O)N2CCN(c3ccc(OCCCN4CCCCC4)cc3Cl)CC2)cc1 [Example E461, 4-(1-{4-[2-Chloro-4-(3-piperidin-1-yl-propoxy)-phenyl]-piperazin-1-yl}-methanoyl)-benzonitrile]	> 6.5	
O=C(C1CCCC1)N1CCN(C(=O)N2CCN(c3ccc(OCCCN4CCCCC4)cc3)CC2)CC1 [Example E288, 1-(Cyclopentylcarbonyl)-4-{[4-(4-{[3-(1-piperidinyl)propyl]oxy}phenyl)-1-piperazinyl]carbonyl}piperazine]	> 8.4	antagonism in the histamine H3 functional antagonist assay (pKb) (listed as Example 288): > 6.5 pKb
CC(C)C(=O)N1CCN(C(=O)N2CCN(c3ccc(OCCCN4CCCCC4)cc3)CC2)CC1 [Example E285, 1-(2-Methylpropanoyl)-4-{[4-(4-{[3-(1-piperidinyl)propyl]oxy}phenyl)-1-piperazinyl]carbonyl}piperazine]	> 6.5	
Cc1noc(C)c1C(=O)N1CCN(c2ccc(OCCCN3CCCCC3)cc2)CC1 [Example E429, 1-[(3,5-Dimethyl-4-isoxazolyl)carbonyl]-4-(4-{[3-(1-piperidinyl)propyl]oxy}phenyl)piperazine]	> 8.4	antagonism in the histamine H3 functional antagonist assay (pKb) (listed as Example 429): > 6.5 pKb
O=C(c1ccc(-c2ccccc2)cc1)N1CCN(c2ccc(OCCCN3CCCCC3)cc2)CC1 [Example E345, 1-(4-Biphenylylcarbonyl)-4-(4-{[3-(1-piperidinyl)propyl]oxy}phenyl)piperazine]	> 6.5	
N#Cc1ccc(C(=O)N2CCN(c3ccc(OCCCN4CCCCC4)cc3C(F)(F)F)CC2)cc1 [Example E305, 4-({4-[4-{[3-(1-Piperidinyl)propyl]oxy}-2-(trifluoromethyl)phenyl]-1-piperazinyl}carbonyl)benzonitrile]	> 6.5	
O=C(c1ccc(F)cc1)N1CCN(c2ccc(OC3CCN(CC4CC4)CC3)cc2)CC1 [Example E256, 1-(4-{[1-(Cyclopropylmethyl)-4-piperidinyl]oxy}phenyl)-4-[(4-fluorophenyl)carbonyl]piperazine]	> 8.4	antagonism in the histamine H3 functional antagonist assay (pKb) (listed as Example E256): > 6.5 pKb
O=C(C1CCOCC1)N1CCN(C(=O)N2CCN(c3ccc(OCCCN4CCCCC4)cc3)CC2)CC1 [Example E290, 1-(4-{[3-(1-Piperidinyl)propyl]oxy}phenyl)-4-{[4-(tetrahydro-2H-pyran-4-ylcarbonyl)-1-piperazinyl]carbonyl}piperazine]	> 8.4	antagonism in the histamine H3 functional antagonist assay (pKb) (listed as Example 290): > 6.5 pKb
O=C(c1cnccn1)N1CCN(c2ccc(OCCCN3CCCCC3)cc2)CC1 [Example E400, 2-{[4-(4-{[3-(1-Piperidinyl)propyl]oxy}phenyl)-1-piperazinyl]carbonyl}pyrazine]	> 6.5	
CC(C)N1CCC(Oc2ccc(N3CCN(C(=O)c4ccc(S(C)(=O)=O)cc4)CC3)cc2)CC1 [Example E266, 1-(4-{[1-(1-Methylethyl)-4-piperidinyl]oxy}phenyl)-4-{[4-(methylsulfonyl)phenyl]carbonyl}piperazine]	> 8.4	antagonism in the histamine H3 functional antagonist assay (pKb) (listed as Example 266): > 6.5 pKb
NC(=O)N1CCN(c2ccc(OCCCN3CCCCC3)cc2)CC1 [Example E272, 4-(4-{[3-(1-Piperidinyl)propyl]oxy}phenyl)-1-piperazinecarboxamide]	> 6.5	
COC(=O)c1ccc(C(=O)N2CCN(c3ccc(OCCCN4CCCCC4)cc3)CC2)cc1 [Example E354, Methyl 4-{[4-(4-{[3-(1-piperidinyl)propyl]oxy}phenyl)-1-piperazinyl]carbonyl}benzoate]	> 8.4	
O=C(c1cc(Cl)cc(Cl)c1)N1CCN(c2ccc(OCCCN3CCCCC3)cc2)CC1 [Example E337, 1-[(3,5-Dichlorophenyl)carbonyl]-4-(4-{[3-(1-piperidinyl)propyl]oxy}phenyl)piperazine]	> 6.5	
O=S(=O)(c1ccccc1)N1CCN(c2ccc(OCCCN3CCCCC3)cc2)CC1 [Example E41, 1-Benzenesulphonyl-4-[4-(3-piperidin-1-yl-propoxy)-phenyl]-piperazine]	> 8.4	antagonism in the histamine H3 functional antagonist assay (pKb) (listed as Example E41): > 6.5 pKb
O=C(Nc1ccccc1)N1CCN(c2ccc(OCCCN3CCCCC3)cc2)CC1 [Example E46, 4-[4-(3-Piperidin-1-yl-propoxy)-phenyl] piperazine-1-carboxylic acid phenylamide]	> 8.4	antagonism in the histamine H3 functional antagonist assay (pKb) (listed as Example E46): > 6.5 pKb
